# The other results are listed elsewhere or left out.
# B1: GS13686A-pdi-553-26-553 (Parabacteroides distasonis) (protein)
# chain: NENPDKPTDDVNYNMNEPRLASTLRGGLIIEGNVEQRLKPLQIDFYSQMTVDGGGWGTKNYIQDDEWNNLVWEEYLKQIASINIVIRSLTEKDKDAYANTIAFARIWRVYVHTLAADKFGPMPFPAYEIVEANPPYKSLKDIYDEYFRELDAAINGFNDSAQPIFSDAGIDLIYKNDVSKWKRFANSLRLRLAVRLTEVDQEKCIAEANAAISSPAGLISDKADNAYMPPKADGSWGQDYNYTMFQITWSGPICMSKSVEKLVTNIGGVAWPQGVVNQTSGVAVSSVHPEKVDPRAPKIFQPGIENGDWKGLVYGPKAEEANTGIYQSKQCAELGFIIKDGYPYKSRPYDLFLSEEVHFLKAELYARGFIAGDAKSEYEAGVRASFATWGVTSEVDDYLTSTEKNEAGTSARYDDQQGAGNTALEKIITQKYIAGIPDLAQEGWNDKRRLNLPRLDVAVYRDQAVYNNNDKDILKSANFIKRMRYPTKESLINATEYEKGKSMLGGKGDIVSTPLWWDKNSNYCTSSK
# What was measured:
# Experiment in all cases: glycan array binding signal (z-score within array); higher = stronger binding
# Conditions in all cases: glycan notation: IUPAC condensed, linker removed
# [1] = molecular target: Gal(b1-4)GlcNAc(b1-2)[Gal(b1-4)GlcNAc(b1-6)]Man(a1-6)[GlcNAc(b1-4)][Gal(b1-4)GlcNAc(b1-2)Man(a1-3)]Man(b1-4)GlcNAc(b1-4)GlcNAc
# Outline: (§1)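 Columns mapping to the same glycan were averaged after glycan names were converted to IUPAC-condensed notation. The data come from 3228 arrays in the Consortium for Functional Glycomics database, limited to those with an available protein sequence. Binding is reported as a within-array Z-score averaged across arrays of one protein sequence and across linkers.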
# [2] = molecular target: Gal(b1-4)GlcNAc(b1-2)[Gal(b1-4)GlcNAc(b1-6)]Man(a1-6)[GlcNAc(b1-4)][Gal(b1-4)GlcNAc(b1-2)[Gal(b1-4)GlcNAc(b1-4)]Man(a1-3)]Man(b1-4)GlcNAc(b1-4)[Fuc(a1-6)]GlcNAc
# Outline: as §1
# [3] = molecular target: Gal(b1-4)GlcNAc(b1-3)Gal(b1-3)GalNAc
# Outline: as §1
# [4] = molecular target: Gal(b1-4)GlcNAc(b1-3)Gal(b1-3)GlcNAc
# Outline: as §1
# [5] = molecular target: Gal(b1-4)GlcNAc(b1-3)Gal(b1-4)Glc
# Outline: as §1
# [6] = molecular target: Gal(b1-4)GlcNAc(b1-3)Gal(b1-4)GlcNAc
# Outline: as §1
# [7] = molecular target: Gal(b1-4)GlcNAc(b1-3)Gal(b1-4)GlcNAc(b1-2)Man(a1-3)[Gal(b1-4)GlcNAc(b1-3)Gal(b1-4)GlcNAc(b1-2)Man(a1-6)]Man(b1-4)GlcNAc(b1-4)GlcNAc
# Outline: as §1
# [8] = molecular target: Gal(b1-4)GlcNAc(b1-3)Gal(b1-4)GlcNAc(b1-2)Man(a1-3)[Gal(b1-4)GlcNAc(b1-3)Gal(b1-4)GlcNAc(b1-2)Man(a1-6)]Man(b1-4)GlcNAc(b1-4)[Fuc(a1-6)]GlcNAc
# Outline: as §1
# [9] = molecular target: Gal(b1-4)GlcNAc(b1-3)Gal(b1-4)GlcNAc(b1-2)[Gal(b1-4)GlcNAc(b1-3)Gal(b1-4)GlcNAc(b1-6)]Man(a1-6)[Gal(b1-4)GlcNAc(b1-3)Gal(b1-4)GlcNAc(b1-2)Man(a1-3)]Man(b1-4)GlcNAc(b1-4)GlcNAc
# Outline: as §1
# [10] = molecular target: Gal(b1-4)GlcNAc(b1-3)Gal(b1-4)GlcNAc(b1-2)[Gal(b1-4)GlcNAc(b1-3)Gal(b1-4)GlcNAc(b1-6)]Man(a1-6)[Gal(b1-4)GlcNAc(b1-3)Gal(b1-4)GlcNAc(b1-2)Man(a1-3)]Man(b1-4)GlcNAc(b1-4)[Fuc(a1-6)]GlcNAc
# Outline: as §1
# [11] = molecular target: Gal(b1-4)GlcNAc(b1-3)Gal(b1-4)GlcNAc(b1-3)Gal(b1-4)GlcNAc
# Outline: as §1
# [12] = molecular target: Gal(b1-4)GlcNAc(b1-3)Gal(b1-4)GlcNAc(b1-3)Gal(b1-4)GlcNAc(b1-2)Man(a1-3)[Gal(b1-4)GlcNAc(b1-3)Gal(b1-4)GlcNAc(b1-3)Gal(b1-4)GlcNAc(b1-2)Man(a1-6)]Man(b1-4)GlcNAc(b1-4)GlcNAc
# Outline: as §1
# [13] = molecular target: Gal(b1-4)GlcNAc(b1-3)Gal(b1-4)GlcNAc(b1-3)Gal(b1-4)GlcNAc(b1-2)Man(a1-3)[Gal(b1-4)GlcNAc(b1-3)Gal(b1-4)GlcNAc(b1-3)Gal(b1-4)GlcNAc(b1-2)Man(a1-6)]Man(b1-4)GlcNAc(b1-4)[Fuc(a1-6)]GlcNAc
# Outline: as §1
# [14] = molecular target: Gal(b1-4)GlcNAc(b1-3)Gal(b1-4)GlcNAc(b1-3)Gal(b1-4)GlcNAc(b1-2)[Gal(b1-4)GlcNAc(b1-3)Gal(b1-4)GlcNAc(b1-3)Gal(b1-4)GlcNAc(b1-6)]Man(a1-6)[Gal(b1-4)GlcNAc(b1-3)Gal(b1-4)GlcNAc(b1-3)Gal(b1-4)GlcNAc(b1-2)Man(a1-3)]Man(b1-4)GlcNAc(b1-4)[Fuc(a1-6)]GlcNAc
# Outline: as §1
# [15] = molecular target: Gal(b1-4)GlcNAc(b1-3)Gal(b1-4)GlcNAc(b1-3)Gal(b1-4)GlcNAc(b1-3)Gal(b1-4)GlcNAc(b1-2)Man(a1-3)[Gal(b1-4)GlcNAc(b1-3)Gal(b1-4)GlcNAc(b1-3)Gal(b1-4)GlcNAc(b1-3)Gal(b1-4)GlcNAc(b1-2)Man(a1-6)]Man(b1-4)GlcNAc(b1-4)GlcNAc
# Outline: as §1
# [16] = molecular target: Gal(b1-4)GlcNAc(b1-3)Gal(b1-4)GlcNAc(b1-3)Gal(b1-4)GlcNAc(b1-3)Gal(b1-4)GlcNAc(b1-2)Man(a1-3)[Gal(b1-4)GlcNAc(b1-3)Gal(b1-4)GlcNAc(b1-3)Gal(b1-4)GlcNAc(b1-3)Gal(b1-4)GlcNAc(b1-2)Man(a1-6)]Man(b1-4)GlcNAc(b1-4)[Fuc(a1-6)]GlcNAc
# Outline: as §1
# [17] = molecular target: Gal(b1-4)GlcNAc(b1-3)Gal(b1-4)GlcNAc(b1-3)Gal(b1-4)GlcNAc(b1-3)Gal(b1-4)GlcNAc(b1-2)[Gal(b1-4)GlcNAc(b1-3)Gal(b1-4)GlcNAc(b1-3)Gal(b1-4)GlcNAc(b1-3)Gal(b1-4)GlcNAc(b1-6)]Man(a1-6)[Gal(b1-4)GlcNAc(b1-3)Gal(b1-4)GlcNAc(b1-3)Gal(b1-4)GlcNAc(b1-3)Gal(b1-4)GlcNAc(b1-2)Man(a1-3)]Man(b1-4)GlcNAc(b1-4)[Fuc(a1-6)]GlcNAc
# Outline: as §1
# [18] = molecular target: Gal(b1-4)GlcNAc(b1-3)Gal(b1-4)GlcNAc(b1-3)Gal(b1-4)GlcNAc(b1-3)Gal(b1-4)GlcNAc(b1-3)Gal(b1-4)GlcNAc(b1-2)Man(a1-3)[Gal(b1-4)GlcNAc(b1-3)Gal(b1-4)GlcNAc(b1-3)Gal(b1-4)GlcNAc(b1-3)Gal(b1-4)GlcNAc(b1-3)Gal(b1-4)GlcNAc(b1-2)Man(a1-6)]Man(b1-4)GlcNAc(b1-4)GlcNAc
# Outline: as §1
# [19] = molecular target: Gal(b1-4)GlcNAc(b1-3)Gal(b1-4)GlcNAc(b1-3)Gal(b1-4)GlcNAc(b1-3)Gal(b1-4)GlcNAc(b1-3)Gal(b1-4)GlcNAc(b1-2)Man(a1-3)[Gal(b1-4)GlcNAc(b1-3)Gal(b1-4)GlcNAc(b1-3)Gal(b1-4)GlcNAc(b1-3)Gal(b1-4)GlcNAc(b1-3)Gal(b1-4)GlcNAc(b1-2)Man(a1-6)]Man(b1-4)GlcNAc(b1-4)[Fuc(a1-6)]GlcNAc
# Outline: as §1
# [20] = molecular target: Gal(b1-4)GlcNAc(b1-3)Gal(b1-4)GlcNAc(b1-3)Gal(b1-4)GlcNAc(b1-3)Gal(b1-4)GlcNAc(b1-3)Gal(b1-4)GlcNAc(b1-2)[Gal(b1-4)GlcNAc(b1-3)Gal(b1-4)GlcNAc(b1-3)Gal(b1-4)GlcNAc(b1-3)Gal(b1-4)GlcNAc(b1-3)Gal(b1-4)GlcNAc(b1-6)]Man(a1-6)[Gal(b1-4)GlcNAc(b1-3)Gal(b1-4)GlcNAc(b1-3)Gal(b1-4)GlcNAc(b1-3)Gal(b1-4)GlcNAc(b1-3)Gal(b1-4)GlcNAc(b1-2)Man(a1-3)]Man(b1-4)GlcNAc(b1-4)[Fuc(a1-6)]GlcNAc
# Outline: as §1
# [21] = molecular target: Gal(b1-4)GlcNAc(b1-3)Gal(b1-4)GlcNAc(b1-3)Gal(b1-4)GlcNAc(b1-3)Gal(b1-4)GlcNAc(b1-3)Gal(b1-4)GlcNAc(b1-3)Gal(b1-4)GlcNAc(b1-2)Man(a1-3)[Gal(b1-4)GlcNAc(b1-3)Gal(b1-4)GlcNAc(b1-3)Gal(b1-4)GlcNAc(b1-3)Gal(b1-4)GlcNAc(b1-3)Gal(b1-4)GlcNAc(b1-3)Gal(b1-4)GlcNAc(b1-2)Man(a1-6)]Man(b1-4)GlcNAc(b1-4)GlcNAc
# Outline: as §1
# [22] = molecular target: Gal(b1-4)GlcNAc(b1-3)Gal(b1-4)GlcNAc(b1-3)GalNAc
# Outline: as §1
# [23] = molecular target: Gal(b1-4)GlcNAc(b1-3)Gal(b1-4)GlcNAc(b1-3)[Gal(b1-4)GlcNAc(b1-3)Gal(b1-4)GlcNAc(b1-6)]GalNAc
# Outline: as §1
# [24] = molecular target: Gal(b1-4)GlcNAc(b1-3)Gal(b1-4)GlcNAc(b1-6)[Gal(b1-3)]GalNAc
# Outline: as §1
# [25] = molecular target: Gal(b1-4)GlcNAc(b1-3)Gal(b1-4)[Fuc(a1-3)]GlcNAc(b1-3)Gal(b1-4)[Fuc(a1-3)]GlcNAc
# Outline: as §1
# [26] = molecular target: Gal(b1-4)GlcNAc(b1-3)GalNAc
# Outline: as §1
# [27] = molecular target: Gal(b1-4)GlcNAc(b1-3)[Fuc(a1-3)GlcNAc(b1-6)]Gal(b1-4)Glc
# Outline: as §1
# [28] = molecular target: Gal(b1-4)GlcNAc(b1-3)[Gal(b1-4)GlcNAc(b1-6)]Gal(b1-4)GlcNAc
# Outline: as §1
# [29] = molecular target: Gal(b1-4)GlcNAc(b1-3)[GlcNAc(b1-6)]Gal(b1-4)GlcNAc
# Outline: as §1
# [30] = molecular target: Gal(b1-4)GlcNAc(b1-6)Gal(b1-4)GlcNAc
# Outline: as §1
# [31] = molecular target: Gal(b1-4)GlcNAc(b1-6)GalNAc
# Outline: as §1
# [32] = molecular target: Gal(b1-4)GlcNAc(b1-6)[Gal(b1-3)]GalNAc
# Outline: as §1
# [33] = molecular target: Gal(b1-4)GlcNAc(b1-6)[Gal(b1-4)GlcNAc(b1-3)]GalNAc
# Outline: as §1
# Gal(b1-4)GlcNAc6P = molecular target: Gal(b1-4)GlcNAc6P
# Outline: as §1
# Gal(b1-6)Gal = molecular target: Gal(b1-6)Gal
# Outline: as §1
# Gal3S(b1-3)GalNAc = molecular target: Gal3S(b1-3)GalNAc
# Outline: as §1
# Gal3S(b1-3)GlcNAc = molecular target: Gal3S(b1-3)GlcNAc
# Outline: as §1
# [34] = molecular target: Gal3S(b1-3)[Fuc(a1-4)]GlcNAc
# Outline: as §1
binder,measurement,setting,value
B1,glycan array binding signal (z-score),[1],0.113
same,glycan array binding signal (z-score),[2],0.178
same,glycan array binding signal (z-score),[3],-0.06
same,glycan array binding signal (z-score),[4],-0.133
same,glycan array binding signal (z-score),[5],0.145
same,glycan array binding signal (z-score),[6],-0.119
same,glycan array binding signal (z-score),[7],0.146
same,glycan array binding signal (z-score),[8],0.153
same,glycan array binding signal (z-score),[9],-0.032
same,glycan array binding signal (z-score),[10],0.113
same,glycan array binding signal (z-score),[11],-0.343
same,glycan array binding signal (z-score),[12],0.45
same,glycan array binding signal (z-score),[13],0.04
same,glycan array binding signal (z-score),[14],-0.172
same,glycan array binding signal (z-score),[15],0.13
same,glycan array binding signal (z-score),[16],0.588
same,glycan array binding signal (z-score),[17],0.203
same,glycan array binding signal (z-score),[18],0.068
same,glycan array binding signal (z-score),[19],0.086
same,glycan array binding signal (z-score),[20],0.187
same,glycan array binding signal (z-score),[21],0.487
same,glycan array binding signal (z-score),[22],-0.105
same,glycan array binding signal (z-score),[23],0.047
same,glycan array binding signal (z-score),[24],-0.244
same,glycan array binding signal (z-score),[25],0.042
same,glycan array binding signal (z-score),[26],-0.371
same,glycan array binding signal (z-score),[27],-0.111
same,glycan array binding signal (z-score),[28],-0.088
same,glycan array binding signal (z-score),[29],-0.011
same,glycan array binding signal (z-score),[30],-0.386
same,glycan array binding signal (z-score),[31],-0.056
same,glycan array binding signal (z-score),[32],0.008
same,glycan array binding signal (z-score),[33],-0.002
same,glycan array binding signal (z-score),Gal(b1-4)GlcNAc6P,0.076
same,glycan array binding signal (z-score),Gal(b1-6)Gal,-0.113
same,glycan array binding signal (z-score),Gal3S(b1-3)GalNAc,-0.419
same,glycan array binding signal (z-score),Gal3S(b1-3)GlcNAc,-0.284
same,glycan array binding signal (z-score),[34],-0.303
